According to the supplement of paper PMC11417369:
The list shows a part of the results.

System: PfHDP1 homeodomain (GST-tagged)
Experiment: gcPBM binding intensity (ln(normalized median fluorescence intensity)); higher = stronger DNA binding
How it was run: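 An Agilent 4 × 180k array of primer-extended double-stranded 36-bp intergenic genomic probes, with negative controls, was incubated for 1 h with GST-tagged P. falciparum DNA-binding domains expressed in E. coli. Alexa488 anti-GST antibody detected bound protein, scanned at 488 nm. Binding intensity is the highest Masliner-normalised natural-log median intensity across replicate spots of either probe orientation.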

Sequence	gcPBM binding intensity (ln)
ATCCATCTTTTAATTTGTACTTATTCTTTTTTCTTT [XGTACX_site5299]	7.03
ATATATATATGTAATAGTACATATGATAGTTTGTCA [XGTACX_site1545]	8.51
ATTAGTTTTATATATAGTACATATAATTTTGAAGGT [XGTACX_site7445]	7.74
TTTTTTTTCAATGGTTGTACAAAGTAAAACAACAAA [XGTACX_site1582]	6.37
TGGGTGTAGAACAATTGTACTTTGTAAAAATATAAG [XGTACX_site8464]	6.59
CACTTTTTTTTTTACTGTACATATACAAATTAAAAA [XGTACX_site1565]	6.63
TATAATAATTAAAAGTGTACTAAATTTTTACATATA [XGTACX_site2523]	6.36
TTTTATTTATCTTAATGTACACATTTATATATATAT [XGTACX_site8588]	8.49
TTAAATAAAAGGTTTAGTACTTAAAATAAGAAATGA [XGTACX_site6341]	6.34
GTAAATATAAACTCAGCACACAAACATATATATGTC [CACACA_site9326]	6.57
TTATATATATTTAAAAAAATAACATAAATAAATAAA [CACACA_negctrl_site347]	6.25
TGCAAGCTTATATAGGTGCACATGTATACGTGTTCA	8.68
TATGTAGTCACAAGGTGTACACTTTAACAAATTATG [XGTACX_site8792]	7.01
TATATACACAAACACACACACACATACACCCACATA [CACACA_site8504]	7.32
TATTAAAATTAAAAAAAAAAAAAAAAGCAATAAAAA [XGTACX_negctrl_site426]	6.24
TTCTAACTTTTAAACACACAAATATAAATAAGTATA [CACACA_site7473]	6.42
AAATGAACAAGTGGCACACACACATTATAACTAATT [CACACA_site9048]	6.17
AAGAATAATAATAAATGTACACAATATTATATATAT [XGTACX_site5525]	7.12
GAACGTATCATGTGTACACACAAATTGTTTTTTTTT [CACACA_site2020]	7.16
CCCGTAAATTATGAGTGTACGTTATTTTTTAAAATG [XGTACX_site3946]	6.64
ACATATACATATATATGTACATAAATATATATATAT [XGTACX_site8630]	8.78
GTGCATATCTGATATACACACAATAAAATAGTATGT [CACACA_site7203]	6.95
AATTATATATTTGAGAGTACATATGTAATGTTTATA [XGTACX_site6970]	6.64

Sequence	gcPBM binding intensity (ln)
TATGATACATAAATATGTACGTATAATATATATTTA [XGTACX_site7002]	6.4
CATATATTATTTATACGTACTAATAAAATAAATCAA [XGTACX_site1030]	6.24
ATATATATATATTGCACACACAATTATTATTATTAT [CACACA_site2299]	10.6
ATGCTTTTTAAATGATTGCACTAGATTGTAATATGT [GTGCAC_site9666]	8.32
TATATATATATTTTAACACACACATATATATATTTA [CACACA_site8892]	8.16
AAGCTTCATTAATATACACACATATATGCGTATATT [CACACA_site3695]	6.53
AAATTTGAAGAATATTGTACGCATAATAATTAAATA [XGTACX_site4300]	6.77
TATATAATTATAAGAACACACATATATATATATATA [CACACA_site2472]	9.28
TGTATGAAATATATTACACACATATAAAATCTATAT [CACACA_site6514]	6.47
TTTTTAATTTTTTGTTGTACATATAATATATTATTA [XGTACX_site4903]	6.68
TTGATGTTGGTAGGATGTACGGTACCGGTAAAGTTT [XGTACX_site7705]	6.55
AATAATACACAATTTTGTACGTATTTAAAATATATT [XGTACX_site45]	6.74
TAAAATATATAATAATGTACATATTTTTATTTAGGA [XGTACX_site4987]	6.11
TATTTATGAGAAATAGTGCAAAGATATGATCTTTAA	8.41
AATTAAAAACATTTCACACATAAAAATGAAATATAT [CACACA_site5199]	6.24
ATAAAATAAAAGTGTACACAAGAAAATATGTTATGT [CACACA_site6033]	7.82
TGTGCTATATTCATATGTACATATAATTATTATATA [XGTACX_site3549]	6.83
AAAAATTACCTGACTTGTACATAATTTAAGAACAAT [XGTACX_site6233]	6.26
ACGTTTGATACACATAAAGTTTTCCTTTGAATGTAC [CACACA_negctrl_site106]	6.68
GGTATATTAAAATAGGTGCATAAAACTAAGAGAAAA [GTGCAC_site9781]	10.4
ATAATATATTTATAATGTACATAAGAACAAATTAAA [XGTACX_site1745]	6.67
CATATTAATATTATGGGTACATATAAATTTACATTC [XGTACX_site687]	6.6
